# Experimental data as given in PubChem BioAssay AID624173 (National Center for Advancing Translational Sciences (NCATS), 2012).
# About 490 (0.12%) of roughly 410,000 compounds were called active. The inconclusive results got no clear call from the source; some entries with a clear call stand among them for comparison. The call rests on the fitted dose curve; in most records, active means well fitted inhibition curve with a large enough effect; inconclusive means small, poorly fitted or top-dose-only effect; inactive means flat fitted curve, though single readings scatter. Potencies of inconclusive entries are doubtful fits and often do not repeat.
# Molecular target: pyruvate kinase (Trypanosoma brucei) (UniProt Q57TT1)
# Experiment: qHTS of Trypanosoma Brucei Inhibitors; further: nearly all actives have a fitted effect of over 50% in size
# Details: TbPYK enzyme, Kinase-Glo Plus ATP luminescence, 45 min; series mostly up to 76.8 µM; activity, negative = inhibition: at the top concentration
# Method in brief: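 Assay buffer: 50 mM TEA pH 7.2, 100 mM KCl, 10 mM MgCl2, 0.05% BSA, 0.01% Tween-20. Pyruvate kinase from T. brucei plus substrate met compound, then ADP (130 uM final). Luminescence was read post 45 min RT.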
# On the % scale 0 is the no-effect control and ±100 the full control effect; potency means the concentration at half of the fitted maximal effect; tags describe the fitted curve by direction and shape.
SMILES,Potency,"activity, negative = inhibition"
C=C(C)Cn1c(-c2cccs2)n[nH]c1=S,"inconclusive: 14.1 µM [inhibitor, partial curve]",–
NC(=O)c1ccsc1NC(=O)c1coc2ccccc2c1=O,"inconclusive: 8.91 µM [inhibitor, partial curve, poor fit]",–
O=c1c2c3c(sc2n2cnnc2n1Cc1ccccc1)CN(Cc1ccccc1)CC3,"inconclusive: 50.1 µM [inhibitor, single point]",–
COCCN1CN(S(=O)(=O)c2ccccc2)c2nc3ccccc3nc21,–,inactive: -7.76%
O=C(Nc1ccc(Br)cc1)N1CCC(CN2CCCC2)CC1,–,inactive: 4.26%
COc1ccc(-c2ccc(CCC(=O)O)o2)cc1,"inconclusive: 25.1 µM [inhibitor, partial curve, poor fit]",–
O=c1c2ccccc2nc(/C=C/c2ccc(O)cc2)n1-c1ccc(O)cc1,–,inactive: -6.89%
CCCSc1nc2c(c(=O)n(C)c(=O)n2C)n1C,–,inactive: 1.15%
Cc1ccc(S(=O)(=O)N2CCOCC2)cc1NC(=O)COC(=O)/C=C/c1ccc(F)cc1,–,inactive: -1.25%
COc1ccc(CNc2ncnc3c2[nH]c2ccccc23)cc1,"inconclusive: 39.8 µM [inhibitor, partial curve, poor fit]",–
S=c1[nH]nc(Cc2cccs2)n1-c1ccccc1Cl,"inconclusive: 7.08 µM [inhibitor, partial curve]",–
CN(C)CC1CC/C(=C\c2ccc(O)cc2)C1=O (centres undefined),"inconclusive: 39.8 µM [inhibitor, partial curve, poor fit]",–
CCOc1cc(NCc2ccccc2)c2ncn(C(C)C)c2c1,–,inactive: -6.45%
O=C1NC(=S)S/C1=C/c1ccc(N2CCOCC2)o1,"inconclusive: 28.2 µM [inhibitor, partial curve, poor fit]",–
COc1cccc(/C=N/n2c(-c3n[nH]c4c3CCC4)n[nH]c2=S)c1OC,"inconclusive: 3.16 µM [inhibitor, partial curve, poor fit]",–
CCOC(=O)c1c(C)[nH]c(=S)c(C#N)c1-c1ccccc1,"inconclusive: 3.16 µM [inhibitor, full curve]",–
Cc1c(-n2c(-c3ccccc3Cl)n[nH]c2=S)c(=O)n(-c2ccccc2)n1C,"inconclusive: 14.1 µM [inhibitor, partial curve, poor fit]",–
Cc1ccc(NC(=O)c2c([N+](=O)[O-])cnn2C)cc1C,–,inactive: 1.15%
COc1ccc(CCn2c(-c3ccco3)nc3ccccc3c2=O)cc1OC,–,inactive: 1.26%
CCOC(=O)CSC1=C(C#N)C(c2sccc2C)C(C(C)=O)=C(C)N1 (centres undefined),"inconclusive: 31.6 µM [inhibitor, single point]",–
Cc1cccc(NC(=O)CCS(=O)(=O)c2cc3c(cc2Cl)NC(=O)CO3)c1,"inconclusive: 31.6 µM [inhibitor, single point]",–
O=C(Nc1ccc2c(c1)OCCO2)C1CC(c2ccccc2Cl)=NO1 (centres undefined),–,inactive: 1.57%

SMILES,Potency,"activity, negative = inhibition"
Cc1ccc(-c2ccc(CCC(=O)O)n2NC(N)=S)cc1,"inconclusive: 15.8 µM [inhibitor, partial curve, poor fit]",–
CCCCCCC#Cc1ccc2c(c1)COc1c3ccccc3nn1-2,–,inactive: -1.18%
COc1ccc(-c2ccc(SC)nn2)cc1,"inconclusive: 14.1 µM [inhibitor, partial curve, poor fit]",–
O=C(O)CCn1cc(C=C2C(=O)NC(=S)NC2=O)c(-c2cccc(Br)c2)n1,"inconclusive: 17.8 µM [inhibitor, partial curve, poor fit]",–
COc1ccc(OC)c(C2CC(=O)N3CN(c4cccc(Cl)c4)CSC3=C2C#N)c1 (centres undefined),"inconclusive: 22.4 µM [inhibitor, partial curve, poor fit]",–
COc1ccc(N(Cc2cc3cc(OC)ccc3[nH]c2=O)S(C)(=O)=O)cc1,"inconclusive: 50.1 µM [inhibitor, single point]",–
O=C1Nc2cc(C(=O)N3CCN(c4ccc(F)cc4)CC3)ccc2NC1CSCc1cccc(F)c1 (centres undefined),"inconclusive: 44.7 µM [inhibitor, partial curve, poor fit]",–
COc1ccc2[nH]c(=O)c(CN(CCO)S(=O)(=O)c3ccc(C)cc3)cc2c1,–,inactive: 2.34%
CSc1nnc(-c2ccc(F)cc2)o1,–,inactive: -9.68%
COc1ccc(OC)c(NC(=O)c2c(NCc3ccc(C)o3)sc3c2CCCCC3)c1,"inconclusive: 35.5 µM [inhibitor, partial curve, poor fit]",–
COc1cccc(OCC(=O)Nc2cc(NC(=O)COc3cccc(OC)c3)cc(C(=O)O)c2)c1,"inconclusive: 14.1 µM [inhibitor, partial curve]",–
CCn1c(-c2cc(OC)c(OC)c(OC)c2)n[nH]c1=S,"inconclusive: 25.1 µM [inhibitor, partial curve]",–
Cc1cccc2sc(NNC(=O)C3COc4ccccc4O3)nc12 (centres undefined),"inconclusive: 28.2 µM [inhibitor, single point]",–
CC1CCN(c2ccc(-c3cccs3)nn2)CC1,"inconclusive: 28.2 µM [inhibitor, partial curve, poor fit]",–
COc1ccc(NC(=O)c2ccc(NC(=O)CN3CCN(c4ccc(O)cc4)CC3)cc2)cc1,"inconclusive: 28.2 µM [inhibitor, partial curve, poor fit]",–
CCC(C(=O)Nc1cc(-c2cn3cccnc3n2)ccc1C)c1ccccc1 (centres undefined),–,inactive: -3.09%
COc1cc(=O)[nH]c(=O)n1C(=O)Cc1ccccc1,"inconclusive: 25.1 µM [inhibitor, single point]",–
CC(C)COc1ccc(-c2nnc(-c3ccco3)o2)cc1,–,inactive: 0%
COc1cc2c(cc1OC)C(=O)C(Br)CC2 (centres undefined),"inconclusive: 3.55 µM [inhibitor, full curve, poor fit]",–
O=C1CC(N2CCSCC2)C(=O)N1c1ccc(F)cc1 (centres undefined),–,inactive: -1.31%
O=C1NC(=O)N(CC2CCCO2)C(=O)/C1=C/c1cccs1 (centres undefined),"inconclusive: 39.8 µM [inhibitor, partial curve, poor fit]",–
COc1ccc2[nH]c3c(=O)n(Cc4ccc(C(=O)NCC5CCCO5)cc4)c(=S)[nH]c3c2c1 (centres undefined),"inconclusive: 0.891 µM [inhibitor, full curve]",–
